One series has as its system NanoLuc-TGA, TAA or TAG. The series is described as follows: Stop codon specificity, NanoLuc reporter plasmids containing TGA, TAA or TAG nonsense codons. The note with it: transiently transfected HEK293 cells; listed as ACE-tRNA^Gly. It is filed as cell-based, human.
The subject of another series is NLuc-UGA. Particulars: gentamicin 40 uM, G418 140 or 150 uM, 24 or 48 hr, listed as ACE-tRNA^Gly. Here is the method:
FIGS. 32A-32D. ACE-tRNAs are more efficient than aminoglycoside PTC suppression.
Generation of stable NLuc reporter cell lines. […] CO2-controlled (5%) cell incubator for 48 hr. […] . […] CO2 controlled (5%) cell culture incubator.

Entries after “also recorded” stand apart in the source; their conditions may differ.

B1: Glychr19.trna2: top performing glycine ACE-tRNA UGA, SEQ ID NO: 53 (nucleic acid)
chain: GCGUUGGUGGUAUAGUGGUUAGCAUAGCUGCCUUCAAAGCAGUUGACCCGGGUUCGAUUCCCGGCCAACGCA
modifications: chemistry not given here
As for B1, in the series on NanoLuc-TGA, TAA or TAG, the “stop codon selectivity (UGA over UAA and UAG)” value was “retained selectivity for the UGA stop codon, over UAA and UAG”. The “PTC suppression compared with gentamicin and G418” value in the series on NLuc-UGA was “outperformed the conventional small molecule suppressors gentamicin (40 μM) and G418 (140 μM); also recorded: outperforms both gentamicin (40 uM) and G418 (140 uM)”.

The record behind these values is patent US12559749B2, “Methods of rescuing stop codons via genetic reassignment with ACE-tRNA” (UNIVERSITY OF IOWA RESEARCH FOUNDATION, priority 2017, dated 2026).
